# Results from the supplement of paper PMC6135742.
# Structures can show the parent of a compound that is named as a salt. ± gives the standard deviation of the averaged measurements. In all, about 2,600 compounds were measured (“total cell number (DAPI+ nuclei) relative to DMSO vehicle control”: median about -1.4, lowest 2% from about -23 on). This is one part of the list.
# Test system: jimpy (Plp1 jimpy) mouse iPSC-derived oligodendrocyte progenitor cells
# Test: total cell number (DAPI+ nuclei) relative to DMSO vehicle control (SDs above negative control mean); higher = more surviving cells
# Settings: 10 µM; 3 days
row,SMILES,total cell number
1,COc1ccc2[nH]cc(CCNC(C)=O)c2c1 [Melatonin],-2.41 ± 0.65
2,O=C([O-])c1ccccc1O.[Na+] [Sodium salicylate],-0.852
3,Cc1ccc(C(=O)c2cc(O)c(O)c([N+](=O)[O-])c2)cc1 [Tolcapone],1.26
4,COc1ccc(COc2ccc(Cc3cnc(N)nc3N)cc2OC)cc1,-0.98
5,CC(C)c1cccc(C(C)C)c1N1C(=O)c2ccc(O)cc2C1=O,-3.15
6,COc1ccc(C(=O)NCc2cccnc2)cc1C(=O)NCc1cccnc1 [Picotamide],-0.923
7,COC(=O)C1=C(C)NC(C)=C(C(=O)OC)C1c1cccc(NC(=O)NCCCN2CCC(c3cccc(OC)c3)CC2)c1,-10.7
8,CCN(Cc1ccncc1)C(=O)C(CO)c1ccccc1 (stereo not given) [Tropicamide],-0.607 ± 0.064
9,CCCCCc1ccc(/C=C/C(=O)Nc2cc(Cl)ccc2C(=O)O)cc1,-1.71
10,N=C(N)c1ccccc1 [Benzamidine hydrochloride],-1.3
11,CC(=O)O/N=C1\C(=O)N(Cc2cc(Cl)ccc2Cl)c2ccc(Cl)cc21,0.904
12,OC(CCN1CCCCC1)(c1ccccc1)C1CC2C=CC1C2 (stereo not given) [Biperiden hydrochloride],-0.289
13,OC(CCN1CCCCC1)(c1ccccc1)C1CC2C=CC1C2 (stereo not given) [Biperiden HCl],7.69
14,CCN(CC)CC#CCOC(=O)C(O)(c1ccccc1)C1CCCCC1 (stereo not given) [Oxybutynin chloride],6.83
15,CCN(CC)CC#CCOC(=O)C(O)(c1ccccc1)C1CCCCC1 (stereo not given) [Oxybutynin Chloride],4.94
16,Cc1ncc([N+](=O)[O-])n1CCO [Metronidazole],-1.54
17,CN1C2CCCC1CC(NC(=O)c1nn(C)c3ccccc13)C2 (stereo not given) [Granisetron hydrochloride],-0.619
18,CN1C2CCCC1CC(NC(=O)c1nn(C)c3ccccc13)C2 (stereo not given) [Granisetron HCl],-0.125
19,O=C(CCCN1CC=C(n2c(=O)[nH]c3ccccc32)CC1)c1ccc(F)cc1 [Droperidol],-1.63 ± 0.086
20,CCO[C@@H]1OC(=O)C[C@@H]1NC(=O)[C@@H]1CCCN1C(=O)[C@@H](NC(=O)c1ccc(N)c(Cl)c1)C(C)(C)C,0.277
21,CCN(CC)CCNC(=O)c1cc(S(C)(=O)=O)ccc1OC [Tiapride hydrochloride],-1.15
22,O=c1[nH]c2ccccc2c2ccccc12 [6(5H)-Phenanthridinone],-3.66
23,C#CCN(C)Cc1ccccc1 [Pargyline hydrochloride],-1.07
24,CCn1cc(C(=O)O)c(=O)c2ccc(C)nc21 [Nalidixic acid],-2.1

row,SMILES,total cell number
1,CCn1cc(C(=O)O)c(=O)c2ccc(C)nc21 [Nalidixic acid sodium],-1.97
2,C[C@H]1[C@@H](O)O[C@@H]2O[C@@]3(C)CC[C@H]4[C@H](C)CC[C@@H]1[C@@]24OO3 [Dihydroartemisinin (DHA)],-7.28
3,COc1ccc(-c2oc3c(CC=C(C)C)c(O[C@@H]4O[C@H](CO)[C@@H](O)[C@H](O)[C@H]4O)cc(O)c3c(=O)c2O[C@@H]2O[C@@H](C)[C@H](O)[C@@H](O)[C@H]2O)cc1 [Icariin],-2.65
4,Cc1cccc(/C=C/c2ccccc2)n1,-0.752
5,COc1ccc2cc(CCC(C)=O)ccc2c1 [Nabumetone],-1.09
6,c1ccc(C(NCCNC(c2ccccc2)c2ccccc2)c2ccccc2)cc1,-7.34
7,Cc1ccc(S(=O)(=O)NC(=O)NN2CC3CCCC3C2)cc1 (stereo not given) [Gliclazide],0.277
8,Cc1cc(Cn2cnc3c2CC(C(=O)O)N(C(=O)C(c2ccccc2)c2ccccc2)C3)ccc1N(C)C (stereo not given),-1.76
9,O=c1c(O)c(-c2cc(O)c(O)c(O)c2)oc2cc(O)cc(O)c12 [Myricetin],-1.15 ± 0.82
10,N#CC(C#N)=C(N)/C(C#N)=C/c1ccc(O)cc1 [Tyrphostin AG 112],-0.733
11,COc1cc2nc(N3CCN(C(=O)c4ccco4)CC3)nc(N)c2cc1OC [Prazosin HCl],-22.3
12,COc1cc2nc(N3CCN(C(=O)c4ccco4)CC3)nc(N)c2cc1OC [Prazosin hydrochloride],-10.2
13,NCCS(=O)(=O)O [Taurine],-0.885
14,O=C(Nc1cc(C(F)(F)F)ccc1N1CCCCC1)c1ccncc1,-0.285
15,CCCCS(=O)(=O)N[C@@H](Cc1ccc(OCCCCC2CCNCC2)cc1)C(=O)O [Tirofiban hydrochloride monohydrate],-0.885
16,COc1nc(C)nc(Cl)c1NC1=NCCN1 [Moxonidine],-0.152
17,COc1nc(C)nc(Cl)c1NC1=NCCN1 [Moxonidine hydrochloride],-0.533
18,Cc1ccc(NC(=O)c2ccc(CN3CCN(C)CC3)cc2)cc1Nc1nc(-c2cccnc2)cs1 [Masitinib (AB1010)],-14
19,N=C(N)NC(=N)N1CCOCC1 [Moroxydine HCl],-1.19
20,CC(C)(C#N)c1ccc(N2C(=O)OCc3cnc4ccc(-c5cnc6ccccc6c5)cc4c32)cc1,-9.24
21,CCN(CC)Cc1ccc2cc(COC(=O)Nc3ccc(C(=O)NO)cc3)ccc2c1 [Givinostat (ITF2357)],-11.3
22,CC(=O)Oc1cccc2c1C(=O)c1c(OC(C)=O)cc(C(=O)O)cc1C2=O [Diacerein],1.39
23,CC(C)C[C@@H](C=O)NC(=O)[C@H](CC(C)C)NC(=O)[C@H](CC(C)C)NC(=O)OCc1ccccc1,-9.47
24,"O=c1oc(Cl)c(Cl)c2ccccc12 [3,4-Dichloroisocoumarin]",-0.221

row,SMILES,total cell number
1,COC1=CC(c2cc3ccccc3[nH]2)=N/C1=C\c1[nH]c(C)cc1C [Obatoclax Mesylate (GX15-070)],-27.6
2,CN(C)CCc1c[nH]c2ccc(Cn3cncn3)cc12 [Rizatriptan Benzoate],-2.26
3,CN(C)CCc1c[nH]c2ccc(Cn3cncn3)cc12 [Rizatriptan benzoate salt],0.0549
4,OCCN1CCN(CCCN2c3ccccc3Sc3ccc(Cl)cc32)CC1 [Perphenazine],-8.9
5,OC[C@H]1O[C@@H](Oc2ccc(O)cc2)[C@H](O)[C@@H](O)[C@@H]1O [Arbutin],-1.48
6,O=C(c1ccc(C(=O)N2CCC(N3CCCC3)CC2)c(Nc2ccccc2)c1)N1CCC(N2CCCC2)CC1,-1.12
7,"NCCCCCCCCCCN [1,10-Diaminodecane]",-0.604
8,COc1ccc(NS(=O)(=O)c2ccc(N)cc2)nn1 [Sulfamethoxypyridazine],0.904
9,Nc1ccc(C(=O)NCC(=O)O)cc1 [4-Aminohippuric Acid],0.763
10,CCCC(=O)O[C@]1(C(=O)COC(C)=O)CC[C@H]2[C@@H]3C[C@H](F)C4=CC(=O)C=C[C@]4(C)[C@@]3(F)[C@@H](O)C[C@@]21C [Difluprednate],4.34
11,CN(NC(=O)CC(=O)NN(C)C(=S)c1ccccc1)C(=S)c1ccccc1 [Elesclomol (STA-4783)],-1.04
12,CO[C@@H]1[C@@H](OC(N)=O)[C@@H](O)[C@H](Oc2ccc3c(O)c(NC(=O)c4ccc(O)c(CC=C(C)C)c4)c(=O)oc3c2C)OC1(C)C [Novobiocin Sodium],-0.427
13,CCN1CCN(C(=O)N[C@@H](C(=O)N[C@@H]2C(=O)N3[C@@H]2SC(C)(C)[C@@H]3C(=O)O)c2ccccc2)C(=O)C1=O [Piperacillin Sodium],-1.22
14,CN(C)CCC[C@@]1(c2ccc(F)cc2)OCc2cc(C#N)ccc21 [Escitalopram Oxalate],1.42
15,CC1=CC(=O)NS(=O)(=O)O1 [Acesulfame Potassium],0.0291
16,CN1CCCC(n2nc(Cc3ccc(Cl)cc3)c3ccccc3c2=O)CC1 (stereo not given) [Azelastine HCl],-6.76
17,COc1cc(OC)c(C=C2C(=O)Nc3ccccc32)c(OC)c1,-4.15
18,NC(=O)N/N=C/c1ccc([N+](=O)[O-])o1 [Nitrofural],-3.72
19,O=C(O[C@H]1CN2CCC1CC2)N1CCc2ccccc2[C@@H]1c1ccccc1 [Solifenacin succinate],-6.26
20,O=S(=O)(c1ccccc1)c1cnc2c(N3CCNCC3)cccc2c1,-1.24
21,COc1ccc(C2(CNC(=O)c3ccc(NC(=O)c4ccco4)cc3)CCOCC2)cc1,-6.22
22,CC(C)C[C@H](NC(=O)[C@H](CCc1ccccc1)NC(=O)CN1CCOCC1)C(=O)N[C@@H](Cc1ccccc1)C(=O)N[C@@H](CC(C)C)C(=O)[C@@]1(C)CO1 [Carfilzomib (PR-171)],-11.3
